# According to PubChem BioAssay AID686992 (Broad Institute, 2013):
# Out of some 260,000 compounds screened, about 960 (0.37%) were called active. Inconclusive means that the source gave no clear call. Such entries were picked first, then a sample of the others.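 Rule for the calls: active = mean E-selectin-positive cell signal at least 10% of the positive control, reached in at least 60% of replicates, without over 20% cell loss; inconclusive = no rule given, readout overlaps actives, possibly toxicity-flagged; inactive = the rest, including those meeting only one limit.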
# Target: E-selectin (Homo sapiens) (UniProt P16581)
# Assay: inducers of endothelial E-selectin expression – imaging, HUVEC, immunofluorescence imaging, single point, primary screen (AID 686992);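 note: signal is the percent of cells scored E-selectin positive by PE staining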
# Conditions: at 7.58 µM, stronger effect = higher value, normalized: neutral wells 0, TNF-alpha wells 100
# Outline: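 Read-out: % PE-positive cells | Test system: HUVEC | Doses: One compound dose added by pin transfer | Buffer or medium: EGM-2 over gelatin coat | Signal: Immunofluorescence imaging | Benchmarks: TNF-alpha, DMSO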
# Chain of UniProt P16581 (P16581 whole entry, looked up): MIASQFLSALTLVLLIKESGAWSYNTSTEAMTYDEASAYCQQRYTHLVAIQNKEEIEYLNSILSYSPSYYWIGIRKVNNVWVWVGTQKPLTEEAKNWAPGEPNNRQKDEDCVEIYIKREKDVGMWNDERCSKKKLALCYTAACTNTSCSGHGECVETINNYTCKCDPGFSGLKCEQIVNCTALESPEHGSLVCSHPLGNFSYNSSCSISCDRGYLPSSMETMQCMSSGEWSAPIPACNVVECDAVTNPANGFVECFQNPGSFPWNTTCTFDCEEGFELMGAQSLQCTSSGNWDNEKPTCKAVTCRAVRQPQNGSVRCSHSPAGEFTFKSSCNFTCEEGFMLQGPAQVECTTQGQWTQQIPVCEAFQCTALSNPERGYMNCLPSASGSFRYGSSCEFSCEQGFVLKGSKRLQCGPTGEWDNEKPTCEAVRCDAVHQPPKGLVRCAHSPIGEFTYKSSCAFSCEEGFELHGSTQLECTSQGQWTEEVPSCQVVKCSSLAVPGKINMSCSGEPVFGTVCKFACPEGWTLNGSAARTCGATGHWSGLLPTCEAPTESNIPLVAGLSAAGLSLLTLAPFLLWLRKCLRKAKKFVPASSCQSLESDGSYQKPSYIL
row,Compound,activation
1,COc1ccc(NC(=O)Nc2cccc3c2O[C@H](CN(C)C(=O)NC2CCCCC2)[C@H](C)CN([C@H](C)CO)C3=O)cc1,active: 32%
2,C[C@@H]1CCCCO[C@@H](CN(C)C(=O)Cc2ccccc2)[C@@H](C)CN([C@H](C)CO)C(=O)c2cc(NS(=O)(=O)c3cccs3)ccc2O1,inconclusive: 26.9%
3,C[C@@H]1CN([C@H](C)CO)C(=O)c2cc(N(C)C)ccc2O[C@@H]1CN(C)C(=O)Nc1ccc2c(c1)OCO2,inconclusive: 214%
4,C/C=C/c1ccc([C@@H]2[C@@H](CO)N[C@@H]2CN(CC(C)C)C(=O)c2ccccn2)cc1,inactive: -0.298%
5,CC(C)NC(=O)N(C)C[C@H]1Oc2ccc(NC(=O)CCC(F)(F)F)cc2CC(=O)N([C@@H](C)CO)C[C@@H]1C,active: 50.4%
6,C[C@H](CO)N1C[C@H](C)[C@H](CN(C)S(=O)(=O)c2ccccc2)Oc2ncc(C#Cc3ccc(F)cc3)cc2C1=O,inconclusive: 93.8%
7,CC(C(=O)O)c1ccc2c(c1)[nH]c1ccc(Cl)cc12 (stereo not given),inconclusive: 68%
8,C[C@H]1COc2cc(N3CCN(Cc4ccccc4F)CC3)ccc2S(=O)(=O)N1,inconclusive: 36.4%
9,O=[N+]([O-])c1cccc(Nc2c([N+](=O)[O-])ccc3nonc23)c1,inconclusive: 31.9%
10,COc1ccc(CCNCC(O)COc2ccc(Cl)cc2)cc1OC (stereo not given),inconclusive: 32.1%
11,COCC#Cc1cnc2c(c1)C(=O)N([C@@H](C)CO)C[C@H](C)[C@H](CN(C)C(=O)Cc1ccccc1)O2,inconclusive: 29%
12,CCc1ccccc1N(CC(=O)NCc1ccccc1)C(=O)CCC(=O)Nc1ccccn1,inconclusive: 26.2%
13,O=C(Nc1cccc(Cl)c1)c1csc([C@@H]2C[C@H](O)[C@@H](CO)O2)n1,inactive: -0.041%
14,O=C(C1CCC1)N1CC2(C1)[C@H](c1ccccc1)[C@@H](CO)N2C(=O)c1cccnc1,inactive: -0.138%
15,C[C@@H]1CN([C@@H](C)CO)C(=O)Cc2cc(NC(=O)C3CC3)ccc2O[C@@H]1CN(C)C(=O)Nc1ccccc1,inconclusive: 228%
16,Oc1ccc(NC(=S)Nc2ccccc2)cc1,inconclusive: 57.3%
17,COc1cc(OC)c(/C=C2\C(=O)Nc3ccccc32)c(OC)c1,inconclusive: 28.6%
18,O=C(C[C@H]1CC[C@@H]2[C@H](COC[C@H](O)CN2C(=O)c2ccccc2)O1)Nc1ccc(-c2ccccc2)cc1,inactive: 0.472%
19,COc1cccc(NC(=O)CSc2nc(=O)n(CCN(C)C)c3c2CCCC3)c1,inconclusive: 32.5%
20,C[C@@H]1CN([C@H](C)CO)C(=O)c2cc(NC(=O)Cn3cnnn3)ccc2O[C@@H]1CN(C)S(=O)(=O)c1ccccc1,active: 60.3%
21,CC(C)(C)[S@](=O)N1Cc2cc(C(=O)N3CCc4ccccc4C3)nc(-c3cccc(-c4cccnc4)c3)c2[C@@H]1CCO,inactive: 0.418%
22,C[C@@H]1CN([C@@H](C)CO)C(=O)Cc2cc(NS(=O)(=O)c3cn(C)cn3)ccc2O[C@H]1CN(C)Cc1ccccc1,inactive: 1.51%
23,CC(O)(c1ccccc1)c1nc(-c2cccc(F)c2)cs1 (stereo not given),inconclusive: 53.6%
24,C[C@@H]1CN([C@H](C)CO)C(=O)c2cc(NC(=O)CCC(F)(F)F)ccc2O[C@@H]1CN(C)Cc1ccc2c(c1)OCO2,inactive: -0.001%
25,COc1cc(C=c2c3ccccc3n3c2cc(-c2ccccc2)[n+]3C)cc(OC)c1OC,active: 139%
